Here are results for nine molecules from PubChem BioAssay AID1963861 (Molecular Pharmacology Branch, DTP, NCI, 2024).

Molecules are shown by their SMILES. Not every entry of the source has a single result; some have several. Only these are listed. An entry can have further records. Values given together are repeats in other runs, samples, wells, individuals or studies. Counts like (3×) say how often a value occurs here. Dates in brackets are months of testing.

This test has as its system 885724-159-R-J1-PDC KRAS PDC multicell spheroid viability. Kind of test: Anticancer human tumor 885724-159-R-J1-PDC patient-derived pancreatic adenocarcinoma cell line growth inhibition [KRAS2]. The settings on record: for viability, T/C: stronger effect = lower value; for IC50: compound alone. From the text:
Multicellular complex tumor spheroid response to RAS pathway inhibitors in combination with a targeted agents in patient-derived cell lines with oncogenic KRAS variants from multiple cancer types
A high-throughput screen of multi-cell type tumor spheroids was designed to identify active combinations of targeted small molecules and KRAS pathway inhibitors. Complex spheroids include a stromal component modeled by human endothelial cells (HUVEC) and fibroblasts modeled by human mesenchymal stem cells (MSCs). The concentration ranges selected for each drug and investigational agent were based upon clinically achievable concentrations if the clinical Cmax of the agent was known.
Compounds. The drugs and investigational agents: BI-3406 (NSC825286), BAY-293 (NSC824723), batoprotafib (TNO155; NSC825523), sotorasib (AMG 510; NSC818433), MRTX1257 (NSC819558), elimusertib (BAY 1895344; NSC800525), molibresib (GSK525762; NSC774829), temuterkib (LY3214996; NSC803410), venetoclax (NSC766270), alisertib (NSC759677), olaparib (NSC753686), talazoparib (NSC767125), erdafitinib (NSC781556), ipatasertib (NSC767898), cabozantinib (NSC761068), nintedanib (NSC756659), abemaciclib (NSC768073), docetaxel (NSC628503), trametinib (NSC758246), and sapanisertib (NSC764658) were obtained from the National Cancer Institute (NCI) Developmental Therapeutics Program Chemical Repository. The FDA-approved anticancer drug set is available from the Developmental Therapeutics Program. […] The stock solutions were prepared in dimethyl sulfoxide (DMSO, Sigma-Aldrich, St. Louis, MO, cat. D2650) at 800-fold the tested concentration and stored at -70 degrees C prior to their use. All drugs and investigational agents were tested over a range starting from a high concentration at or near the clinical Cmax and decreasing in half-log increments. If the clinical Cmax for an agent had not been determined, the highest concentration tested was 10 microM.
Cell Culture. All cells were maintained in an incubator at 37 degrees C and 5% CO2 with 95% humidity. The PDC lines were cultured according to standard operating procedures established by the NCI PDMR (https://pdmr.cancer.gov/sops/default.htm). Briefly, all PDCs were thawed and cultured in Matrigel-coated flasks prepared with a working solution of 1X Ham's F-12 nutrient mix, without supplementation (Invitrogen, Waltham, MA, cat. 11765054), 100 U/mL penicillin-streptomycin (Invitrogen, cat. 15140122), and 2.5% Matrigel (Corning Inc., Corning, NY, cat. 354248) for the first three passages. All PDCs were cultured in complete DMEM/F-12 media containing advanced DMEM/F-12 (Invitrogen, cat. 12634028), 4.9% defined fetal bovine serum, heat inactivated (HyClone Laboratories Inc., Logan, UT, cat. SH30070.03HI), 389 ng/mL hydrocortisone (Sigma-Aldrich, cat. H4001), 9.7 ng/mL human EGF recombinant protein (Invitrogen, cat. PHG0313), 23.4 microg/mL adenine (Sigma-Aldrich, cat. A2786), 97.3 U/mL penicillin-streptomycin (Invitrogen, cat. 15140122), 1.9 mM L-glutamine (Invitrogen, cat. 25030081), and 9.7 microM Y-27632 dihydrochloride (Tocris Bioscience, Bristol, United Kingdom, cat. 1254). The PDCs were cultured in complete DMEM/F12 media without 9.7 microM Y-27632 dihydrochloride for at least two passages prior to the screen. The established cell line HOP-62 was cultured in RPMI 1640 medium, HEPES (Invitrogen, cat. 22400105) with 10% defined fetal bovine serum (HyClone Laboratories Inc., cat. SH30070.03) and 2 mM L-glutamine (Invitrogen, cat. 25030081). The pooled donor HUVEC were cultured in endothelial cell growth medium 2 (PromoCell, Heidelberg, Germany, cat. C-22011) and the hMSC were cultured in mesenchymal stem cell growth medium 2 (PromoCell, cat. C-28009). For all experiments, HUVEC and hMSC were used at passages </=5, while the malignant cell lines were used at passages </=15. […]
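Further: spheroids exposed to agents for 7 days before readout.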

Regarding `CC1(C)CCC(CN2CCN(c3ccc(C(=O)NS(=O)(=O)c4ccc(NCC5CCOCC5)c([N+](=O)[O-])c4)c(Oc4cnc5[nH]ccc5c4)c3)CC2)=C(c2ccc(Cl)cc2)C1`, the viability, T/C (compound alone 3.16 µM) is 105, 71.7, 98.4, 90.7, 86.3% and the viability, T/C (compound alone 10 µM) is 45.1, 12.6, 33.3, 46.7, 46.2%.

In the case of `CC1OCC2(CCN(c3cnc(Sc4ccnc(N)c4Cl)c(N)n3)CC2)C1N` (centres undefined), the viability, T/C reads like this: (compound alone 0.316 µM) 96.9, 100, 102, 72.6, 86, 93, 77.3, 83.7, 83.9, 85.5, 73.4% [2021-08] and 81.3, 79.1, 79.5, 86.4, 82.6, 82.8, 80.7, 76.6% [2021-09]; (compound alone 1 µM) 112, 144, 138, 78, 72.7 (2×), 86, 76.6, 74.1, 76.1, 70.8% [2021-08] and 77.4, 80.3, 72.8, 75.5, 77.9, 78.4, 75.7, 70.5% [2021-09]; (compound alone 10 µM) 84.7, 137, 88.3, 60.8, 59.6, 84.8, 59.8, 74.4, 56.8, 57.5, 57.8% [2021-08] and 61.4, 59.8, 71.6, 63.6, 70.3, 66.1, 59, 62.8, 57.1% [2021-09].

For the molecule `CC(=O)OC12COC1CC(O)C1(C)C(=O)C(O)C3=C(C)C(OC(=O)C(O)C(NC(=O)OC(C)(C)C)c4ccccc4)CC(O)(C(OC(=O)c4ccccc4)C21)C3(C)C` (centres undefined), the viability, T/C (compound alone 0.316 µM) is 108 (2×), 98.5, 118, 126% and the viability, T/C (compound alone 3.16 µM) was 106 (2×), 112, 121, 132%.

For orientation: IC50 means the concentration at which inhibition is half-maximal. With `COc1cc2nc(C)nc(NC(C)c3cc(N)cc(C(F)(F)F)c3)c2cc1OC1CCOC1` (centres undefined), the viability, T/C (compound alone 0.1 µM) is 110, 105 (2×), 108, 99.5, 111, 83.1, 97.3, 92.8, 97.9, 100% [2021-08] and 94.5, 88, 93.6, 105, 92.6% [2021-09]; the viability, T/C (compound alone 0.316 µM) was 90.8 (2×), 98.8, 104, 101 (2×), 115, 83.5, 87.2, 93.9, 87.5% [2021-08] and 85.8, 92.5, 86.2, 105, 88% [2021-09]; the viability, T/C (compound alone 1 µM) was 113, 90.1, 121, 97.3 (2×), 94.8, 108, 79.7, 83.5, 93.3, 89.5% [2021-08] and 88.6, 92.3, 81.1, 94.3, 82.2% [2021-09]; the viability, T/C (compound alone 3.16 µM) is 98.5, 81.7, 92.5, 94.4, 75.5, 102, 79, 77.2, 83.1, 89.7, 87.3% [2021-08] and 69.2, 82.5, 87.5, 93.5, 78.2% [2021-09]; the viability, T/C (compound alone 10 µM) was 99.1, 71, 98.2, 58.5, 45.2 (2×), 36.3, 24.2, 53.5, 34.7, 35.4% [2021-08] and 23.6, 38.5, 19.5, 64.4, 41.6% [2021-09]. For the same molecule, the half-maximal inhibitory concentration (IC50) by setting is: (run of 08/26/2021) 5.81 µM, > 10 µM, 8.69 µM, 7.26 µM, 7.24 µM; (run of 09/02/2021) 5.14 µM, 7.47 µM, 5.95 µM, > 10 µM, 7.66 µM.

Regarding `C=CC(=O)N1CCN(c2nc(=O)n(-c3c(C)ccnc3C(C)C)c3nc(-c4c(O)cccc4F)c(F)cc23)C(C)C1` (centres undefined), the viability, T/C reads like this: (compound alone 3.16 µM) 101 (2×), 107 (2×), 84.1, 85, 102, 109, 112, 108% [2021-08] and 114, 107, 101, 94.1% [2021-09]; (compound alone 10 µM) 92.5, 84.5, 85.6, 83, 67, 70, 68.4, 84, 82.9, 90.3, 87% [2021-08] and 84.8, 75.9, 73.3, 72% [2021-09].

Regarding `CC(C)n1nc(-c2ccc3oc(N)nc3c2)c2c(N)ncnc21`, the IC50 was 45 nM, 32.2 nM, > 100 nM, 18 nM.

Turning to `CN(C)C/C=C/C(=O)Nc1cc2c(Nc3ccc(F)c(Cl)c3)ncnc2cc1O[C@H]1CCOC1`, for the setting “compound alone 0.00316 µM”, the viability, T/C is 94.3, 96, 71.5, 96.3, 99.8%.

Consider `CNCc1ccccc1-c1csc(C(C)Nc2nc(C)nc3cc(OC)c(OC)cc23)c1` (centres undefined), for which the viability, T/C runs as follows: (compound alone 1 µM) 99.2, 107, 110, 100, 94.3, 89.2, 87.4, 89.3, 82.9, 87.1, 99.3% [2021-08] and 84.6, 92.5, 89.7, 98% [2021-09]; (compound alone 3.16 µM) 97.9, 1.03, 1.38, 1.98, 2.17, 1.23, 1.17, 1.72, 1.78, 1.22, 0.94% [2021-08] and 0.43, 2.59, 5.37, 4.18% [2021-09]. Further, the IC50 (run of 08/19/2021) was 5.51, 1.81, 1.85, 1.8, 1.74, 1.67 µM.

Take `C=CC(=O)N1CCN(c2nc(OCC3CCCN3C)nc3c2CCN(c2cccc4cccc(C)c24)C3)CC1CC#N` (centres undefined): the viability, T/C was 95.7, 107, 114, 96.6, 118, 102 (2×), 112, 99.6, 103, 97.6% [2021-08] and 91.7, 94.6, 91.9, 95.6, 102, 99.6% [2021-09] (compound alone 0.1 µM); 91.4, 94.1, 106, 91.5, 89.4, 76.7 (2×), 97, 85.4, 97.4, 81.7% [2021-08] and 77.6, 76, 81.8, 79.8, 78.2, 81.4% [2021-09] (compound alone 1 µM); 111, 49.8, 67.5, 59.4, 46.6, 48.1, 52.1, 58.6, 49, 60, 58.4% [2021-08] and 49.7, 55.7, 52, 52.6, 47.6, 47.1% [2021-09] (compound alone 3.16 µM).
